This note sets out measurements from PubChem BioAssay (NCI).

“And” between values parts separate entries of the source, which are not always exact repeats. Equal entries are not always repeated.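 In this assay, cells in 96-well plates receive the compound at five concentrations for 48 hours. Endpoints are linearly interpolated between the surrounding concentrations. GI50 marks 50% less growth. TGI marks complete inhibition of growth.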

The subject of this test is NCI-H322M lung. Nature of the test: NCI-60 cell line screen, 48 h.
In the case of `O=c1[nH]c2nc3ccccc3n2c(O)c1-c1ccccc1`, the TGI is > 100 µM.

Consider `Cc1cccc2c1CC1(Cc3ccccc3C1=O)C2=O` (stereo unspecified), for which the TGI is > 100 µM. In the case of `OC1c2c(ccc3c2CCC3)CC12Cc1ccccc1C2` (stereo unspecified), the TGI stood at 32.4 µM.

As for `NC(=O)c1nnsc1N/N=C/c1ccc([N+](=O)[O-])cc1`, the TGI is > 100 µM.

For `O=C(NCc1ccccc1)c1cc2ccccc2oc1=Nc1ccccc1F`, the TGI is > 100 µM. For the compound `COC(=O)C1CC(C(=O)OC)c2nc3cc([N+](=O)[O-])ccc3nc21` (stereo unspecified), the TGI was > 100 µM.

With `CN(C)C(=S)OC(Cn1cncn1)c1ccc(Cl)cc1Cl` (stereo unspecified), the TGI was > 100 µM. Regarding `CC(C)(C)OC/C=C(\Br)CO`, the TGI is > 100 µM. Turning to `COc1ccc(OC)c(C(=O)c2cccc(C(=O)c3cc(OC)ccc3OC)n2)c1`, the TGI is > 100 µM. Consider `Cc1cc(-c2ccc[nH]2)on1`, for which the TGI was > 100 µM. Turning to `CCOC(=O)c1ccc2c(c1)nc(-c1ccc(Cl)cc1)n2-c1cc(C(C)(C)C)[nH]n1`, the GI50 is 5.75 µM and the TGI is > 100 µM. For the compound `CCOC(=O)/C(=N/Nc1ccc(C)cc1)N1C(=S)C=C(C)NN(C)C1=S`, the TGI is > 100 µM. For the compound `CCC(=O)O[C@@H]([C@H](C)[C@H]1OC(CC)=C(C)C(=O)[C@@H]1C)[C@@H](C)C(=O)CC`, the GI50 is > 100 µM and the TGI was > 100 µM. As for `CC(C)(c1cn(Cc2ccccc2)c2ccccc12)c1cn(Cc2ccccc2)c2ccccc12`, the TGI was > 100 µM. For the compound `CCc1ccccc1NC(=O)C1=C(C)NC(C)=C(C(=O)Nc2ccccc2CC)C1c1cccc([N+](=O)[O-])c1`, the TGI is > 100 µM.

With `COc1oc(C(=O)NC2CCCCC2)c(-c2ccc(Cl)cc2)c1S(=O)(=O)c1ccccc1`, the TGI was > 100 µM.

For `CCCCCCCC/C=C(\Br)C(O)C(Br)Br` (stereo unspecified), the TGI was > 100 µM. For the compound `CN(C)C(=S)/N=C1\SC(=Nc2ccccc2)C(=Nc2ccccc2)N1c1ccc([N+](=O)[O-])cc1`, the TGI is > 100 µM. As to `C[n+]1[se]c2ccccc2c1Cl`, the TGI was > 74.3 µM.

In turn, `CCCCCCCCCCOC1C(C(O)CNCCCN(C)C)OC2OC3(CCCCC3)OC21` (stereo unspecified) showed a TGI of 17.9 µM. Turning to `Cc1ccc(/C=C2\COc3ccc(O)c(O)c3C2=O)cc1`, the GI50 is 2.6 µM and the TGI amounted to 11.3 µM. In turn, `CCCCCCCCCc1c(Cl)nc(Cl)nc1Cl` yielded a TGI of 31.8 µM. Still for that read-out and setting: the result for `Cc1[nH]c(-c2ccccc2)c(O)c1C(=O)OC12CC3CC(CC(C3)C1)C2` reads 29.3 µM; that for `O=C(O)CCn1cnc2c(=S)nc[nH]c21`, > 100 µM. Same read-out and setting: the result for `CCOC(=O)c1nnsc1NC(=O)NN` reads > 100 µM; that for `CCOc1ccccc1N1CSc2nnc(-c3ccccc3)n2C1`, > 100 µM; that for `O=C(COc1ccc2c(=O)cc(-c3ccc(Cl)cc3)oc2c1)N1CCN(c2ccccc2)CC1`, > 100 µM. Same read-out and setting: for `COc1cc(-c2nc3nc(N4CCN(C)CC4)ccc3[nH]2)c(OC)c2[nH]c(CO)nc12` the value was > 100 µM. `CCO.CCO.Oc1ccc(Nc2ncns2)cc1.Oc1ccc(Nc2ncns2)cc1.[Ti]`: the GI50 is 22 µM and the TGI turned out to be 93.6 µM.

On to `COc1ccc([As]=[As]c2ccc(OC)c(NCS(=O)(=O)O)c2)cc1NCS(=O)(=O)O` (stereo unspecified), for which the GI50 is 3.11 µM and the TGI amounted to 12.6 µM. For `O=c1[nH]nc(Cc2ccccc2)n1/N=C/c1ccc(/C=N/n2c(Cc3ccccc3)n[nH]c2=O)cc1`, the TGI is > 100 µM. For `c1ccc(CSCCNCCN(CCNCCSCc2ccccc2)CCNCCSCc2ccccc2)cc1`, the GI50 was 1.35 µM and the TGI is 2.66 µM. For `CCN(CC)c1ccc(C2=NN(C(C)=O)C(c3cc(OC)c(OC)c(OC)c3)C2)cc1` (stereo unspecified) the same measures were 0.904 µM and 11.9 µM. Take `COP(=O)(CC(=O)C1OC(C)(C)OC1C(O)COCc1ccccc1)OC` (stereo unspecified): the TGI was > 100 µM. On to `Cn1c(-c2ccccc2)c2cc3nc4ccccc4nc3cc2c1-c1ccccc1`, for which the TGI is > 100 µM. On the same count and under the same terms, for `N#CC1(Cc2ccccc2)CCCCN1C(=O)c1ccccc1` (stereo unspecified) the value was > 100 µM; for `CN(C)c1ccc(C(C#N)NNC(=O)Cc2ccccc2)cc1` (stereo unspecified), > 100 µM. The same measure, in the same setting: the result for `Cc1ccc(S(=O)(=O)NNC(=O)Nc2ccc(Cl)cc2)cc1` reads > 100 µM; that for `Cc1ccc(C2C(C(=O)C(C)(C)C)N2S(=O)(=O)c2ccc(C)cc2)cc1` (stereo unspecified), > 100 µM; that for `Nc1nc(N)c(-c2cccc(C(F)(F)F)c2)c(Cc2cccc(C(F)(F)F)c2)n1`, 16.2 µM.

The compound `CN(C)c1ccc(/C=C2\C[C@H]3[C@@H]4CCc5cc(OCCN6CCCC6)ccc5[C@H]4CC[C@]3(C)[C@H]2O)cc1` came in with a TGI of 33.3 µM.

In the case of `CCN(CC)CCOc1cccc2nc3c(cc12)Cn1c-3cc2c(c1=O)COC(=O)C2(O)CC` (stereo unspecified), the GI50 was 3.29 µM and 5.7 µM; the TGI was 18.8 µM and 29.5 µM. As for `O=C(O)CCc1ccc(-c2ccccc2)[nH]1`, the TGI is > 100 µM. On the same count and under the same terms, for `C#CCCCC(=C)C[C@@H]1OC(=O)[C@H](C)[C@@H]1O` the value was > 100 µM. On to `CCCCCCCCCCCCCCCCSC(=NCC)NCC`, for which the GI50 is 3.28 µM and the TGI stood at 11.3 µM. For `COc1ccc(-c2cc(=O)c3cc(C)cnc3[nH]2)cc1`, the TGI is > 100 µM. On to `S=C1C(=Nc2ccccc2)N(C2CCCCC2)C(=NC2CCCCC2)N1c1ccccc1`, for which the TGI is > 100 µM. Consider `OCCCc1n(Cc2ccc3ccccc3c2)c2ccccc2[n+]1Cc1ccc2ccccc2c1`, for which the GI50 was 2.15 µM and the TGI stood at 9.1 µM. Turning to `O=C(/C=C/c1ccccc1F)c1ccc([N+](=O)[O-])cc1`, the TGI is > 100 µM. In the case of `OCCN(CCO)CCn1cnc2c(NCc3ccccc3)ncnc21`, the TGI was > 100 µM.

As to `NC1CCCCC1`, the TGI was > 562 µM. On to `CS(=O)(=O)c1ccc(Oc2cc(F)cc(C#N)c2)c2c1[C@H](O)[C@H](F)[C@H]2F`, for which the GI50 was > 100 µM and the TGI was > 100 µM. As for `CC12CCC(=O)N1c1cnccc1N2` (stereo unspecified), the TGI was > 100 µM. Turning to `O=[N+]([O-])c1ccc(N/N=C2\C=CCCC2)c([N+](=O)[O-])c1`, the TGI is > 100 µM.

As for `COc1ccc(-c2nn(C(=O)NCCN(C)C)cc2-c2ccncc2)cc1Cl`, the GI50 is 27.2 µM and the TGI is > 100 µM.

Regarding `O=C1N[C@H](Cc2cnc[nH]2)C(=O)N2CCC[C@@H]12`, the TGI was > 100 µM. Same read-out and setting: for `N#CCC(=O)N/N=C(\CCN1CCCC1)CC(c1ccccc1)c1c(O)c2ccccc2oc1=O` (stereo unspecified) the value was > 100 µM; for `CN(C)c1ccc(/C=C(\C#N)c2nc(-c3cc4ccccc4oc3=O)cs2)cc1`, > 50 µM.

As to `O=C(CI)OCC(COC(=O)CI)OC(=O)CI`, the GI50 was 17 µM and the TGI was 35.6 µM. Regarding `CCn1c2ccccc2c2nnc(NCCCO)nc21`, the TGI was > 100 µM.

`COC(=O)C1(Cc2ccccc2)Cc2cc3c(cc2C1)CCC3` showed a TGI of 78.1 µM. Regarding `O=C1Nc2ccccc2/C1=C/C(=O)c1ccc(N2CCCC2)cc1`, the GI50 was 4.28 µM and the TGI is > 100 µM. With `C/C(=N\NC(=O)c1ccc(C(C)(C)C)cc1)c1ccc(O)cc1O`, the GI50 was 0.383 µM and the TGI was > 100 µM. Regarding `O=CC12c3ccccc3C(c3ccccc31)C1C(=O)NC(=O)C12` (stereo unspecified), the TGI was > 100 µM. Same read-out and setting: for `COc1ccc2c(c1)OCC1Cc3cc4c(cc3OC21)OCO4` (stereo unspecified) the value was > 100 µM; for `C=C(C)c1ccccc1` (tested in a mixture with another compound), > 100 µM; for `COc1cc(Nc2c(C#N)[n+]([O-])c3ccccc3[n+]2[O-])cc(OC)c1OC`, > 100 µM. Same read-out and setting: the result for `CCOC(=O)c1nnsc1NC(=O)NCCCCCCn1c(=O)n(CCCCCCNC(=O)Nc2snnc2C(=O)OCC)c(=O)n(CCCCCCNC(=O)Nc2snnc2C(=O)OCC)c1=O` reads > 100 µM; that for `Cc1[nH]c2ccccc2c1-c1n[nH]c(=O)c2ccccc12`, 87.3 µM.

Turning to `O=C(c1ccccc1)c1c(C(F)(F)F)n([O-])c2ccc(F)cc2[n+]1=O`, the GI50 was 1.89 µM and the TGI stood at 3.78 µM. Regarding `C=C1C(=O)OC2C1C(=O)C/C(C)=C/CCC1(C)OC21` (stereo unspecified), the TGI was > 100 µM.

In the case of `Nc1ncc(-c2ccc3ncnc(N4CCc5ccc(Cl)cc54)c3c2)cn1`, the GI50 was 1.27 µM and the TGI came out at 67 µM. For `Nc1ccn(C2OC(CO)C(O)C2(F)F)c(=O)n1` (stereo unspecified), the TGI was > 100 µM. On the same count and under the same terms, the result for `O=C1/C(=N\n2c(-c3ccncc3)n[nH]c2=S)c2cc(Cl)ccc2N1CN1CCCCC1` reads > 100 µM. `COc1cc(C(=O)N2CCN(c3ccccn3)CC2)c(N)cc1OCc1ccccc1`: the GI50 is > 100 µM and the TGI is > 100 µM. The compound `O=C(CNC(=O)c1ccccc1)Oc1c(Cl)c(Cl)c(Cl)c(Cl)c1Cl` returned a TGI of 61.9 µM.

Turning to `Cc1cc(C)c2ccc(N3CCNCC3)nc2n1`, the TGI was > 100 µM. Turning to `CC(C)Cc1ccc(C(C)C(=O)NCc2ccc(Cn3c(=O)sn(CCCCl)c3=O)cc2)cc1` (stereo unspecified), the GI50 is 2.13 µM and the TGI was found to be 5.92 µM. As for `Cc1cc(S(=O)(=O)Nc2n[nH]c(-c3ccc(Cl)cn3)n2)c(S)cc1Cl`, the TGI was > 100 µM. Turning to `COc1cc2cc(c1Cl)N(C)C(=O)C[C@H](OC(=O)[C@H](C)N(C)C(=O)CCS)C[C@]1(C)O[C@H]1[C@H](C)[C@@H]1C[C@@](O)(NC(=O)O1)[C@H](OC)/C=C/C=C(\C)C2`, the GI50 is < 0.005 µM and the TGI is > 50 µM. With `CCOC(NC(=O)CC)(C(F)(F)F)C(F)(F)F`, the TGI is > 100 µM. Still for that read-out and setting: for `S=c1sc2c(s1)SCc1cccc(n1)CSc1sc(=S)sc1SCc1cccc(n1)CS2` the value was > 100 µM; for `CC(C)=Cc1cc2c(cc1O)CCC1C2CC[C@@]2(C)C1CC[C@@H]2O` (stereo partly specified), 18 µM; for `Nc1cc(C(=O)NC2C3CC4CC(C3)CC2C4)[nH]c(=S)n1` (stereo unspecified), > 100 µM. On to `CCCCCCCCCCCC[C@@H](O)[C@H]1CC[C@H]([C@H](O)CCCC[C@H](O)CCCCC[C@@H](O)CC2=C[C@H](C)OC2=O)O1`, for which the GI50 is 0.31 µM; the TGI is 9.8 µM and 18.8 µM. Turning to `COc1ccc(N2C(=O)/C(=C/c3ccc(N(CCC#N)CCC#N)cc3C)N=C2/C=C\c2ccccc2)cc1`, the TGI was > 100 µM. Same read-out and setting: for `CC(C)=CC1CC(=O)C1(C)Sc1ccccc1` (stereo unspecified) the value was > 100 µM. In the case of `c1ccc2nc3c(cc2c1)Sc1cc2ccccc2[n+]2c1N3CC2`, the GI50 is 53.6 µM and the TGI was > 100 µM. For the compound `Cc1csc(-n2nc(C)cc2C)n1`, the TGI is > 100 µM.
